Test results: PubChem BioAssay AID889 (National Center for Advancing Translational Sciences (NCATS), 2007)
About 15 (0.02%) of roughly 75,000 compounds were called active. The inconclusive results got no clear call from the source; some entries with a clear call stand among them for comparison. Calls come from the whole dose curve; as a rule, active = well fitted inhibition curve with a large enough effect in the main read-out, with a control signal flat (not every such curve was filed as active); inconclusive = small, poorly fitted or top-dose-only effect, or a change in a side signal; inactive = flat fitted curve, though single readings scatter. Where the call is inconclusive, the potency comes from a doubtful curve fit. A note “side channel” means that the fit belongs to a control or component signal, not to the main read-out.

molecular target: Caspase-7 (Homo sapiens) (UniProt P55210); assay: qHTS Assay for Allosteric/Competitive Inhibitors of Caspase-7; details: recombinant caspase-7, Ac-DEVD-AFC fluorescence rate; activity change, negative = inhibition: at 57.5 µM (top of the series) unless noted; for activity change, negative = inhibition: % of control where 0% means no effect
Potency is the fitted concentration of half-maximal effect; tags give direction and shape of the fitted curve or compound fluorescence and quenching.

UniProt P55210, sequence (P55210 whole entry, looked up): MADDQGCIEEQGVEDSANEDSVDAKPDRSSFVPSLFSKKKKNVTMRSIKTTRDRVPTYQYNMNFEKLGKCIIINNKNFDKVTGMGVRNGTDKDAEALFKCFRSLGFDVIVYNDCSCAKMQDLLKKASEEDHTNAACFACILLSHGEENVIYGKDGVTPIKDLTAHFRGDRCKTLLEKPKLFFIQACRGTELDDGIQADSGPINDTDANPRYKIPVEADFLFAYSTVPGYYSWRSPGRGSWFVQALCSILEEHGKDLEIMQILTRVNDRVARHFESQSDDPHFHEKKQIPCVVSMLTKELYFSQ

Activity change, negative = inhibition, inactive:
CN(Cc1ccco1)c1ncnc2ccc(-c3cccc(NS(C)(=O)=O)c3)cc12 -5.24%
c1ccc2c(c1)nnn2Cc1nnc2sc(-c3ccc4c(c3)OCCO4)nn12 -0.457%
COc1cc(OC)c(/C=C2/C(=O)Nc3ccccc32)c(OC)c1 0.378%
CCCCCc1c(O)c2ccccc2[nH]c1=O 2%
CCOC(=O)c1ccc2ncc(C(=O)OCC)c(NCc3ccco3)c2c1 -2.41%
Nc1cc(Cl)c([N+](=O)[O-])cc1O -5.06%
COc1ccccc1-c1cc(-n2ccnc2)ncn1 -5.47%
CC(C)CN1CCCC2(CCN(C(=O)c3cc(C(F)(F)F)cc(C(F)(F)F)c3)CC2)C1 -1.54%
C[C@@]12CC[C@@H]3[C@H](CCC4=CC(=O)CC[C@]43C)[C@@H]1CC[C@@H]2C(=O)COS(=O)(=O)c1ccc(Br)cc1 -1.81% [at 11.5 µM]
O=C(CC(SCCO)c1ccc(F)cc1)c1ccco1 (centres undefined) 0.301%
Cc1ccc2nc(-c3cccc(NC(=O)c4ccc5c(c4)OCCO5)c3)oc2c1 1.17%
CC[C@]1(O)C[C@H]2CN(CCc3c([nH]c4ccccc34)[C@](C(=O)OC)(c3cc4c(cc3OC)N(C)[C@@H]3[C@](O)(C(=O)OC)[C@H](OC(C)=O)[C@]5(CC)C=CCN6CC[C@]43[C@@H]65)C2)C1 -1.25%
CCCCn1c(SCC(=O)NC(=O)NCc2ccco2)nc2cc(S(N)(=O)=O)ccc21 -19.1%
CCC(Oc1ccccc1)C(=O)Nc1nnc(C)s1 (centres undefined) 1.32%
COc1ccc2oc(-c3ccc(O)cc3)cc(=O)c2c1 -13%
CCNc1nc(-c2ccc(Cl)cc2)cs1 -0.293%
COc1ccc2nc(NC(=O)c3cnccn3)sc2c1 -8.33%
CCN1C(=O)[C@H]2[C@H]3[C@H](O)[C@H](O)C/C(=N/OC[C@@H](O)[C@H]4O[C@H]5OC(C)(C)O[C@H]5[C@@H]4O)[C@@H]3CC[C@@H]2C1=O -0.697% [at 11.5 µM]
Cc1ccc(CCP(=O)(O)CN2CCCCC2)cn1 0.691%
O=C(NC1=NCCS1)c1ccc2c(c1)C(=O)N(Cc1ccco1)C2=O -1.97%
CC(C)(C)c1ccc(Cn2nnc3c(=O)[nH]c(C4CCN(C(=O)Cc5cccs5)CC4)nc32)cc1 -5.41%

Potency, inconclusive:
CCCC(=O)C1=C(c2ccccc2)C(C#N)(C#N)C(C#N)=C1N 31.6 µM [fluorescent, single point]
CCNc1cc2oc(=O)c(CN3CCOCC3)c(C)c2cc1C 3.98 µM [fluorescent, side channel, partial curve]
Cc1cccn2c(=O)c3cc(C#N)c(=NC(=O)c4ccncc4)n(Cc4ccco4)c3nc12 12.6 µM [fluorescent, side channel, partial curve]
COc1cccc(Nc2ncc3nc(-c4ccccc4)c(=O)n(Cc4cccs4)c3n2)c1 2.51 µM [fluorescent, side channel, full curve]
COc1ccc(-c2cc(C(=O)OCC(=O)N3CCCC3)c3ccccc3n2)cc1 31.6 µM [inhibitor, single point]
COc1cc2c(cc1OC)/C(=C/C(=O)N1CCOCC1)NC(C)(C)C2 25.1 µM [fluorescent, partial curve]
O=C(C1=C(O)C(=O)N(CCN2CCOCC2)C1c1ccccn1)c1cccs1 (centres undefined) 15.8 µM [inhibitor, partial curve]
Cn1c(-c2c(N)n(C3CCCC3)c3nc4ccccc4nc23)nc2ccccc21 3.98 µM [fluorescent, partial curve]
COc1ccc(-c2nc3cnc(OC)nc3n(-c3ccccc3)c2=O)cc1 25.1 µM [fluorescent, side channel, single point]
COCCn1c(=O)c(-c2cc(F)cc(F)c2)nc2cnc(Oc3cccc(Cl)c3)nc21 20 µM [fluorescent, side channel, partial curve]
Cc1cccn2c(=O)c3cc(C(=O)NCc4ccco4)c(=N)n(CCc4ccccc4)c3nc12 12.6 µM [fluorescent, partial curve]
O=C(Nc1ccc2c(c1)nc1n2CCN(C2CCCCC2)C1)c1ccco1 20 µM [inhibitor, partial curve]
O=C(NC1CC1)c1cc2c(s1)-c1ccccc1OC2 25.1 µM [fluorescent, partial curve]
COc1cccc(-c2cn3nc(C)c(C)nc3n2)c1 15.8 µM [fluorescent, partial curve]
CN(C)c1ncc2nc(-c3ccccc3)c(=O)n(-c3ccccc3)c2n1 3.98 µM [fluorescent, side channel, full curve]
N=c1c(S(=O)(=O)c2ccccc2)cc2c(=O)n3ccccc3nc2n1CCN1CCOCC1 15.8 µM [fluorescent, partial curve]
CCOC(=O)c1cc2c(=O)n3ccccc3nc2n(Cc2ccc(Cl)cc2)c1=N 2 µM [fluorescent, side channel, partial curve]
COCCn1c(=O)c(-c2ccc(Cl)cc2)nc2cnc(N3CCOCC3)nc21 2.51 µM [fluorescent, full curve]
Nc1ncnc2nc(-c3ccc(N4CCOCC4)nc3)cc(-c3cccc(Br)c3)c12 31.6 µM [fluorescent, side channel, partial curve]
CCCOc1ccccc1C1C(C(=O)OC)=CN(C(C)C)C=C1C(=O)OC 7.94 µM [fluorescent, side channel, partial curve]
COc1ccc(OC)c(N=c2oc3cc(O)ccc3cc2C(N)=O)c1 12.6 µM [fluorescent, side channel, partial curve]
CCCCOn1c(C)c(C(=O)OCC)c2c3nonc3ccc21 25.1 µM [inhibitor, partial curve]
O=C(c1ccc2nc(-c3ccco3)c(-c3ccco3)nc2c1)N1CCN(c2ccccc2)CC1 31.6 µM [fluorescent, side channel, single point]
COc1ccc(-n2c(=O)c(-c3ccccc3)nc3cnc(N4CCN(C)CC4)nc32)cc1 25.1 µM [inhibitor, partial curve]
COc1cccc(Nc2ncc3nc(-c4ccccc4)c(=O)n(C)c3n2)c1 2.51 µM [fluorescent, partial curve]
O=c1c(-c2cccs2)nc2cncnc2n1Cc1ccccc1 7.94 µM [fluorescent, partial curve]
COc1ccc(Oc2ncc3nc(-c4cccs4)c(=O)n(CCC#N)c3n2)cc1 20 µM [fluorescent, side channel, partial curve]
COc1ccc2nc(SCC(=O)Nc3ccc(S(=O)(=O)N4CCCC4)cc3)c(C#N)cc2c1 15.8 µM [fluorescent, partial curve]
CCOc1ccccc1C1CC(c2ccc(Br)cc2)Nc2nc(N)nn21 (centres undefined) 25.1 µM [inhibitor, single point]
COC(=O)C1=CN(C)C=C(C(=O)OC)C1c1ccc(Cl)cc1Cl 12.6 µM [fluorescent, side channel, partial curve]
COc1cccc(/C=N/n2c(SC)nnc2-c2ccccc2)c1O 31.6 µM [inhibitor, single point]
CCOc1cccc2cc(-c3nnc(NCc4ccco4)s3)c(=O)oc12 15.8 µM [fluorescent, side channel, partial curve]
COc1ccc(-c2cc(C(F)(F)F)n3nc(C(=O)NCc4ccco4)cc3n2)cc1 15.8 µM [fluorescent, partial curve]
CN1CCc2c(sc3c2C(=O)NC(c2ccco2)N3)C1 (centres undefined) 10 µM [fluorescent, side channel, partial curve]
O=C1c2ccccc2NC(c2ccncc2)N1c1ccccn1 (centres undefined) 15.8 µM [fluorescent, side channel, partial curve]
O=c1oc2c(CN3CCCCCC3)c(O)ccc2cc1-c1nc2ccccc2[nH]1 1.58 µM [fluorescent, side channel, full curve]
CCCCCn1c(=NC(C)=O)c(C#N)cc2c(=O)n3cccc(C)c3nc21 5.01 µM [fluorescent, side channel, full curve]
COC(=O)C1=CN(C(C)C)C=C(C(=O)OC)C1c1cc2c(cc1Br)OCO2 25.1 µM [fluorescent, partial curve]
CC(C)Cn1c(-c2cccs2)nc2nc3ccccc3nc21 15.8 µM [fluorescent, side channel, partial curve]
CN(C)c1ncc2nc(-c3cccc(C#N)c3)c(=O)n(CCC#N)c2n1 25.1 µM [fluorescent, partial curve]
CCOC(=O)C1CCN(S(=O)(=O)c2ccc3c4c(cccc24)C(=O)N3)CC1 12.6 µM [fluorescent, partial curve]
CC(C)Cn1c(N)c(C(=O)NCc2cccs2)c2nc3ccccc3nc21 3.98 µM [fluorescent, side channel, full curve]

Potency, inactive:
O=C(Nc1cccc2nsnc12)c1cccs1
